# In all, about 340,000 compounds went through this assay and about 2,100 (0.62%) were called active. Inconclusive results, whose numbers are uncertain, are shown with a selection of clear calls.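 How the source made its calls: active means first-screen hits whose inhibition reached a set limit at any dose in the follow-up dose series; inconclusive means inhibition above the set first-screen limit but never retested; inactive means the rest.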
# Target: Rac GTPase-activating protein 1 (Homo sapiens) (UniProt Q9H0H5)
# Test: blockers of MgcRacGAP-driven Rac1 GTP hydrolysis – biochemical, ADP Hunter fluorescence, primary and confirmatory, confirmation (AID 624330);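 further: fluorescence reports GDP produced by GAP-driven GTP hydrolysis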
# Conditions: MgcRacGAP-stimulated Rac1 GTP hydrolysis, at 30 µM, hits give high values, GST-tagged Rac1 F28L mutant substrate
# UniProt Q9H0H5, sequence (Q9H0H5 whole entry, looked up): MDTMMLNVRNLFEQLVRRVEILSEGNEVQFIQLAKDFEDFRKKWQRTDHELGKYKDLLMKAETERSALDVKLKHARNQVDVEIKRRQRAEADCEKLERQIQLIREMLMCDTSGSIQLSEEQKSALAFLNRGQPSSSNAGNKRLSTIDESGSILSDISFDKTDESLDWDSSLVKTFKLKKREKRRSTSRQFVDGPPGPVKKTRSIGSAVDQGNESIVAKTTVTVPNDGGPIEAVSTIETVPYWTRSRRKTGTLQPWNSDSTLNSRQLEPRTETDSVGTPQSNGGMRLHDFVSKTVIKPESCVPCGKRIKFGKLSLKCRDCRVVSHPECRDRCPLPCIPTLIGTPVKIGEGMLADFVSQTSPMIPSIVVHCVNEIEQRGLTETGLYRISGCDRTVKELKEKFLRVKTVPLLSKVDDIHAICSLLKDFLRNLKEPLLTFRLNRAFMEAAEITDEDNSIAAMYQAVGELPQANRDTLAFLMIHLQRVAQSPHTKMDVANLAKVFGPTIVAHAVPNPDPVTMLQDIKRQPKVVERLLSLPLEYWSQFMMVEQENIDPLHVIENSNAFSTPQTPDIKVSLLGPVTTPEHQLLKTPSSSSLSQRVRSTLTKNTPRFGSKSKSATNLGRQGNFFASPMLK
row,Structure (SMILES),inhibition
1,C#CCOCCOCCOCCNc1nc(N2CCN(C(=O)CCCCCCCCCCNC(=O)[C@H]([C@@H](C)CC)n3cc(CCCCCN)nn3)CC2)nc(N2CCN(C(=O)CCCCCCCCCCNC(=O)[C@H](CO)n3cc(CCCCCN)nn3)CC2)n1,inconclusive: 76.2%
2,CCc1cc(-c2[nH]ncc2-c2ccc3c(c2)OCO3)c(O)cc1O,inconclusive: 57.2%
3,CCCCNC(=O)c1sc(=S)n2c1[nH]c(=O)c1ccccc12,inconclusive: 34.6%
4,Cn1c(-c2cccc([N+](=O)[O-])c2)cnc1NCc1ccc(C#N)cc1,inconclusive: 33.8%
5,Cc1c(F)cccc1NS(=O)(=O)c1ccc2c(c1)n(C)c(=O)c(=O)n2C,inactive: -0.09%
6,Cc1csc(N=Nc2ccc(N(C)C)cc2)[n+]1[O-],inconclusive: 52.5%
7,COc1cc(CNCCNC(=O)c2cccs2)cc(OC)c1OC,inconclusive: 33.5%
8,COc1cccc(Nc2n[nH]c(=S)s2)c1,inconclusive: 73.7%
9,Cc1cccc(C)c1NC(=O)C(C)NCc1cccs1 (stereo not drawn),inconclusive: 33.7%
10,CN(C)c1ccc(NC(N)=S)cc1,inconclusive: 44.5%
11,Cc1c(C(=O)NCC(c2ccco2)N(C)C)oc2c(Cl)cccc12 (stereo not drawn),inactive: 5.84%
12,O=C1C(=Cc2ccccc2[N+](=O)[O-])Cc2ccccc21,inactive: 5.54%
13,CN(C)c1ccc(C=c2c3ccccc3n3c2c2ccccc2[n+]3C)cc1,inconclusive: 50%
14,O=C(/C=C/c1ccc(N2CCCCC2)c([N+](=O)[O-])c1)c1ccc(S(=O)(=O)N2CCCC2)cc1,inactive: 6.38%
15,Fc1ccc(N2CCN(C(c3cccs3)c3nnnn3CCc3ccccc3)CC2)cc1 (stereo not drawn),inactive: -2.42%
16,O/C=c1\ccc2cccc3nc(C(F)(F)F)nc1c23,inconclusive: 34.9%
17,Cc1nc2sc(C(c3cccs3)N3CCN(C(=O)c4ccco4)CC3)c(O)n2n1 (stereo not drawn),inactive: 1.66%
18,O=C(CSc1nnc(-c2ccco2)c(-c2ccco2)n1)Nc1ccccc1,inconclusive: 34.7%
19,O=C(c1ccc2ccccc2c1)N1CCN(c2ccc(O)cc2)CC1,inconclusive: 57.3%
20,COc1cccc(CN2CCCC(C(=O)N3CCCCC3)C2)c1OC (stereo not drawn),inconclusive: 35%
21,CCCCC(CC)CN=C(N)NC(N)=NCCCCCCN=C(N)NC(N)=NCC(CC)CCCC (stereo not drawn),inconclusive: 80.5%
22,CC(C)N1CCN(S(=O)(=O)c2ccccc2)CC1,inconclusive: 35%

row,Structure (SMILES),inhibition
1,NC(=S)N=Nc1ccc(NN=C(N)N)cc1,inconclusive: 63.1%
2,CC(C)C(C(=O)O)N1C(=O)/C(=C/C=C/c2ccco2)SC1=S (stereo not drawn),inconclusive: 78.2%
3,CN(C)c1ccc(NC(=O)CN2CCN(S(=O)(=O)c3cc(Cl)ccc3Cl)CC2)cc1,inconclusive: 42.5%
4,O=C(CSc1nnc(-c2ccco2)n1Cc1ccccc1)NCc1ccccc1,inactive: 5.14%
5,O=C(N/N=C/c1ccc(O)c(O)c1)NC12CC3CC(CC(C3)C1)C2,inconclusive: 44.5%
6,Cc1ccc2c(C(=O)N3CCN(c4ccccc4)CC3)cc(-c3cccnc3)nc2c1C,inactive: 6.48%
7,CC(NC(=O)/C(C#N)=C/c1ccc([N+](=O)[O-])o1)c1ccccc1 (stereo not drawn),inconclusive: 32%
8,Cc1ccc(C)n1-c1ccc(N(C)C)cc1,inconclusive: 47%
9,COc1ccc(C(=O)Nc2nc3cc(OC)c(OC)cc3c(=O)[nH]2)cc1,inactive: 14.9%
10,COc1cc(/C=N/NC(=O)c2ccc3c(c2)OCCO3)cc(Br)c1O,inconclusive: 33.5%
11,c1coc(-c2nnc(-c3ccco3)nn2)c1,inconclusive: 72.2%
12,Cc1ccccc1N(CC(=O)NCCc1ccccc1)C(=O)c1ccc(N2CCCC2)nc1,inactive: -2.74%
13,CCc1cc2c(Nc3ccc(O)cc3)nc(C)nc2s1,inconclusive: 101%
14,CC1C=CC=CC=CC=CC=CC=CC=CC(OC2OC(C)C(O)C(N)C2O)CC2OC(O)(CC(O)CC(O)C(O)CCC(O)CC(O)CC(=O)OC(C)C(C)C1O)CC(O)C2C(=O)O (stereo not drawn),inconclusive: 41.2%
15,Cc1cccc(C(C)n2nnc3ccccc32)c1O (stereo not drawn),inactive: 6.53%
16,CCN(CCCCOC(=O)c1ccc(OC)c(OC)c1)C(C)Cc1ccc(OC)cc1 (stereo not drawn),inconclusive: 33.6%
17,CCc1cccc(OCCCCNCCOC)c1,inconclusive: 33%
18,CCOC(=O)N1CCN(c2ccc(O)cc2)CC1,inconclusive: 94.6%
19,Cn1c(=O)c2c(nc3n2CC(O)CN3c2ccc(O)cc2)n(C)c1=O (stereo not drawn),inconclusive: 38.9%
20,Nc1ccc(N2CCN(C(=O)c3ccco3)CC2)cc1,inconclusive: 57.5%
21,CN(C)CCOC(=O)c1ccc2[nH]c3c(c2c1)CSCC3,inconclusive: 33.3%
22,CCc1cc2c(=O)c(-c3nc4ccccc4n3C)c(COCC(=O)O)oc2cc1O,inactive: 3.02%

row,Structure (SMILES),inhibition
1,Cc1cccc2sc(N(CCN(C)C)C(=O)c3ccc4ccccc4c3)nc12,inactive: 5.08%
2,CCCCC1C(=O)N(c2ccccc2)N(c2ccc(O)cc2)C1=O (stereo not drawn),inconclusive: 42%
3,O=C(NC(=S)Nc1ccc(O)cc1)c1ccccc1Cl,inconclusive: 71.7%
4,Cc1ccc(-c2nnc(Nc3ccc(O)cc3)c3ccccc23)cc1S(=O)(=O)NCCO,inconclusive: 83.4%
5,O=C1ON=C(c2ccc([N+](=O)[O-])cc2)/C1=C/c1ccccc1O,inconclusive: 34.2%
6,CC(=O)Nc1ccc(NCN2C(=O)[C@@H]3[C@H]4CC[C@H](C4)[C@@H]3C2=O)cc1,inconclusive: 33.7%
7,Fc1ccc(-n2cc(CNCCc3cccnc3)c(-c3ccccc3Cl)n2)cc1,inactive: 5.92%
8,CC(C)Oc1ccc(C2NC(=O)c3ccccc3O2)cc1 (stereo not drawn),inactive: 4.5%
9,COc1cc(-c2cc(=O)c3ccccc3o2)ccc1O,inconclusive: 85.2%
10,CCC(C)(C)n1nnnc1C(c1ccc2ncccc2c1)N1CCN(c2ccc(O)cc2)CC1 (stereo not drawn),inconclusive: 44.1%
11,CCOc1cc(/C=C/c2cc(C(F)(F)F)[nH]c(=O)n2)ccc1O,inconclusive: 59.5%
12,S=c1[nH]nc(-c2cccnc2)n1/N=C/c1ccc(Br)s1,inactive: 8.12%
13,COc1cc(S(=O)(=O)NCCN2CCOCC2)ccc1-n1cnnn1,inconclusive: 32.4%
14,O=C(CCc1ccc(O)cc1)NN=Cc1ccc2c(c1)OCO2,inactive: 28.7%
15,Nc1ccc2nc(CCc3ccccc3)[nH]c2c1,inconclusive: 61.5%
16,C#CCOCCOCCOCCNc1nc(N2CCN(C(=O)CCCCCCCCCCNC(=O)Cn3cc(CCCCCN)nn3)CC2)nc(N2CCN(C(=O)CCCCCCCCCCNC(=O)[C@H](CO)n3cc(CCCCCN)nn3)CC2)n1,inconclusive: 70.4%
17,CCOc1cccc(/C=N/NC(=O)c2cc(C3CC3)[nH]n2)c1O,inactive: 9.09%
18,Cc1cc(SCC(=O)N/N=C/c2ccc(O)cc2O)nc2ccccc12,inconclusive: 36%
19,O=c1oc2ccccc2cc1-c1ccc(O)cc1,inconclusive: 51.3%
20,Cc1ccc(-c2csc3ncnc(SCC(=O)c4ccc5c(c4)OCCO5)c23)cc1,inactive: 1.98%
21,Clc1ccc(-c2nc(/C=N/N3CCOCC3)c3ccccn23)cc1,inconclusive: 62.2%
22,O=C(Nc1ccc(O)cc1)/C(=C\C=C\c1ccccc1)NC(=O)c1ccccc1,inconclusive: 40.5%

row,Structure (SMILES),inhibition
1,CC(=NNC(=O)c1ccncc1)c1ccc(O)cc1O,inconclusive: 32.3%
2,CCOc1cc(CNc2ncc(-c3ccc(OC)cc3)n2C)ccc1O,inconclusive: 33.6%
3,CN(C)c1ccc(NC(=O)CN2CCN(CC(=O)Nc3ccc(F)cc3)CC2)cc1,inconclusive: 34.2%
4,CC(Oc1ccc2ccc(=O)oc2c1)C(=O)c1ccccc1 (stereo not drawn),inactive: 8.03%
5,O=C(O)CN1C(=O)/C(=C\c2ccc(OC(=O)c3ccco3)cc2)SC1=S,inconclusive: 32.8%
6,C=CCOc1ccccc1CNc1ccc2[nH]c(=O)[nH]c2c1,inconclusive: 79.3%
7,COc1cc(/C=C2\SC(=S)N(C(C(=O)O)c3ccccc3)C2=O)ccc1O (stereo not drawn),inconclusive: 53.1%
8,COc1ccc(CNc2ccc3c(c2)ncn3C)cc1OC,inconclusive: 33.8%
9,Cc1cccc(NC(=O)CC(C)(C)C)c1,inactive: 5.55%
10,C[C@@H](C(=O)Nc1nc(-c2ccccn2)cs1)N1C(=O)C2CCCCC2C1=O (stereo partly drawn),inconclusive: 32.4%
11,C[C@@H]1O[C@@H](OC[C@H]2O[C@@H](Oc3c(-c4ccc(O)c(O)c4)oc4cc(O)cc(O)c4c3=O)[C@H](O)[C@@H](O)[C@@H]2O)[C@H](O)[C@H](O)[C@H]1O,inconclusive: 34.1%
12,COc1ccc(NC(=S)NCCc2ccc(F)cc2)c(OC)c1,inactive: 5.59%
13,CCOc1ccc(/C=N/NC(=O)CSc2ccccn2)cc1O,inconclusive: 57.4%
14,Nc1ccc(-c2nc3c(Cl)cc(N)cc3[nH]2)cc1,inconclusive: 81.7%
15,Cc1cc(=O)[nH]c(Nc2ccc(N(C)C)cc2)n1,inconclusive: 52.5%
16,Cc1ccccc1Nc1n[nH]c(=S)s1,inconclusive: 35.4%
17,CCOC(=O)C1CCCCN1Cc1ccc(C(F)(F)F)cc1 (stereo not drawn),inconclusive: 33.3%
18,CN1CCCN(Cc2cccc3ccccc23)CC1,inconclusive: 32%
19,CC1CCN(CCOc2ccccc2-c2ccccc2)CC1,inconclusive: 35.4%
20,CC(=O)c1ccc(NC(=O)C[n+]2ccccc2)cc1,inactive: 10.2%
21,O=C(OCCCN1CCOCC1)c1ccc(O)c(O)c1,inconclusive: 39.3%
22,Cc1ccc2nc(-c3ccccn3)c(NC3CCCC3)n2c1,inconclusive: 55.1%
